This is an account of results in publication PMC12820563, “FoxP3 forms a head-to-head dimer in vivo and stabilizes its multimerization on adjacent microsatellites”.

Some of the results follow.

This test addresses T1, MBP-FoxP1dN (Mus musculus, UniProt P58462 326-579).
T1 sequence: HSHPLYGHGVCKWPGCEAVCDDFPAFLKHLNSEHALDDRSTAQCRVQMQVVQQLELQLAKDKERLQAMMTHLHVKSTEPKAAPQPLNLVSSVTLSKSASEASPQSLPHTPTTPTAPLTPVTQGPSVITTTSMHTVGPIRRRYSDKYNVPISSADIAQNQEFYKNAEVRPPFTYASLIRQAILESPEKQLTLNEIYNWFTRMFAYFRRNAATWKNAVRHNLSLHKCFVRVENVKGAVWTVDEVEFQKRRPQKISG
As to the kind of experiment: PD-seq (MBP pull-down with sequencing); 20 mM Tris-HCl pH 7.5, 100 mM NaCl, 1.5 mM MgCl2, 0.4 uM protein, 0.1 uM dsDNA library, 30 min, room temperature, amylose pull-down; high values mean tight binding. Particulars: protein: recombinant; tags: His6-MBP; chain copies: 2; dsDNA, one strand shown. An outline of the steps:
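The N-terminus-lacking fragment of mouse FoxP3 or FoxP1 carried a His6-MBP tag and was expressed in E. coli. At 0.4 µM it was incubated with 0.1 µM Klenow-filled degenerate double-stranded DNA library for 30 min at room temperature in Tris pH 7.5 buffer with NaCl and MgCl2, and complexes were caught on amylose resin, washed three times, released with proteinase K, PCR-barcoded and Illumina-sequenced. Binding is reads-per-million enrichment of pull-down over input with replicates pooled.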
Turning to “GATGATTGTTCTCCCAGCTGATGAATTATTTGAGTCGAGTAAACAAATTTTCCTAATCTTTCTGTTCAAGCGCCATCTAC”, the binding signal was 1.06 RPM ratio (pull-down/input).
As for “GATGATTGTTCTCCCAGCTGATGAATTCTATATCTCGAGTAAACAAATTTTCCTAATCTTTCTGTTCAAGCGCCATCTAC”, the binding signal is 0.869 RPM ratio (pull-down/input).
For “GATGATTGTTCTCCCAGCTGATGAATTCCTGGACTCGAGTAAACAAATTTTCCTAATCTTTCTGTTCAAGCGCCATCTAC”, the binding signal was 0.754 RPM ratio (pull-down/input).
Consider “GATGATTGTTCTCCCAGCTGATGAATTACTGTCTTCGAGTAAACAAATTTTCCTAATCTTTCTGTTCAAGCGCCATCTAC”, for which the binding signal is 1.01 RPM ratio (pull-down/input).
For the sequence “GATGATTGTTCTCCCAGCTGATGAATTAAGACTGTCGAGTAAACAAATTTTCCTAATCTTTCTGTTCAAGCGCCATCTAC”, the binding signal was 0.825 RPM ratio (pull-down/input).
For “GATGATTGTTCTCCCAGCTGATGAATTAGAGTGATCGAGTAAACAAATTTTCCTAATCTTTCTGTTCAAGCGCCATCTAC”, the binding signal was 0.893 RPM ratio (pull-down/input).
With “GATGATTGTTCTCCCAGCTGATGAATTTCCCAGGTCGAGTAAACAAATTTTCCTAATCTTTCTGTTCAAGCGCCATCTAC”, the binding signal was 0.75 RPM ratio (pull-down/input).
For the sequence “GATGATTGTTCTCCCAGCTGATGAATTAAAACAGTCGAGTAAACAAATTTTCCTAATCTTTCTGTTCAAGCGCCATCTAC”, the binding signal was 1.07 RPM ratio (pull-down/input).
Turning to “GATGATTGTTCTCCCAGCTGATGAATTATGCATCTCGAGTAAACAAATTTTCCTAATCTTTCTGTTCAAGCGCCATCTAC”, the binding signal is 1.59 RPM ratio (pull-down/input).
With “GATGATTGTTCTCCCAGCTGATGAATTAAGGCAATCGAGTAAACAAATTTTCCTAATCTTTCTGTTCAAGCGCCATCTAC”, the binding signal was 1.1 RPM ratio (pull-down/input).
Take “GATGATTGTTCTCCCAGCTGATGAATTAATCTAATCGAGTAAACAAATTTTCCTAATCTTTCTGTTCAAGCGCCATCTAC”: the binding signal was 1.1 RPM ratio (pull-down/input).
In the case of “GATGATTGTTCTCCCAGCTGATGAATTAACTATCTCGAGTAAACAAATTTTCCTAATCTTTCTGTTCAAGCGCCATCTAC”, the binding signal was 0.809 RPM ratio (pull-down/input).
In the case of “GATGATTGTTCTCCCAGCTGATGAATTAAATCTCTCGAGTAAACAAATTTTCCTAATCTTTCTGTTCAAGCGCCATCTAC”, the binding signal was 0.904 RPM ratio (pull-down/input).
To “GATGATTGTTCTCCCAGCTGATGAATTGGCCCGGTCGAGTAAACAAATTTTCCTAATCTTTCTGTTCAAGCGCCATCTAC” belongs 0.753 RPM ratio (pull-down/input).
On to “GATGATTGTTCTCCCAGCTGATGAATTCGTAGCGTCGAGTAAACAAATTTTCCTAATCTTTCTGTTCAAGCGCCATCTAC”, for which the binding signal was 0.879 RPM ratio (pull-down/input).
For “GATGATTGTTCTCCCAGCTGATGAATTTATTGTCTCGAGTAAACAAATTTTCCTAATCTTTCTGTTCAAGCGCCATCTAC”, the binding signal was 1.78 RPM ratio (pull-down/input).
In the case of “GATGATTGTTCTCCCAGCTGATGAATTAGAGCGCTCGAGTAAACAAATTTTCCTAATCTTTCTGTTCAAGCGCCATCTAC”, the binding signal is 0.836 RPM ratio (pull-down/input).
In the case of “GATGATTGTTCTCCCAGCTGATGAATTTGGCATATCGAGTAAACAAATTTTCCTAATCTTTCTGTTCAAGCGCCATCTAC”, the binding signal is 1.02 RPM ratio (pull-down/input).
As for “GATGATTGTTCTCCCAGCTGATGAATTTGGCTTATCGAGTAAACAAATTTTCCTAATCTTTCTGTTCAAGCGCCATCTAC”, the binding signal was 1.03 RPM ratio (pull-down/input).
“GATGATTGTTCTCCCAGCTGATGAATTTAGTATCTCGAGTAAACAAATTTTCCTAATCTTTCTGTTCAAGCGCCATCTAC”: the binding signal was 1.01 RPM ratio (pull-down/input).
To “GATGATTGTTCTCCCAGCTGATGAATTGGGTGTGTCGAGTAAACAAATTTTCCTAATCTTTCTGTTCAAGCGCCATCTAC” belongs 0.964 RPM ratio (pull-down/input); to “GATGATTGTTCTCCCAGCTGATGAATTTGTACACTCGAGTAAACAAATTTTCCTAATCTTTCTGTTCAAGCGCCATCTAC”, 1.39 RPM ratio (pull-down/input).
Turning to “GATGATTGTTCTCCCAGCTGATGAATTGGATCTCTCGAGTAAACAAATTTTCCTAATCTTTCTGTTCAAGCGCCATCTAC”, the binding signal is 0.78 RPM ratio (pull-down/input).
To “GATGATTGTTCTCCCAGCTGATGAATTTCGTGAATCGAGTAAACAAATTTTCCTAATCTTTCTGTTCAAGCGCCATCTAC” belongs 0.976 RPM ratio (pull-down/input).
With “GATGATTGTTCTCCCAGCTGATGAATTCGCAGTATCGAGTAAACAAATTTTCCTAATCTTTCTGTTCAAGCGCCATCTAC”, the binding signal is 0.928 RPM ratio (pull-down/input).
In the case of “GATGATTGTTCTCCCAGCTGATGAATTGACTTAATCGAGTAAACAAATTTTCCTAATCTTTCTGTTCAAGCGCCATCTAC”, the binding signal is 1.22 RPM ratio (pull-down/input).
As to “GATGATTGTTCTCCCAGCTGATGAATTGCGGACTTCGAGTAAACAAATTTTCCTAATCTTTCTGTTCAAGCGCCATCTAC”, the binding signal is 1.03 RPM ratio (pull-down/input).
In the case of “GATGATTGTTCTCCCAGCTGATGAATTTACGATGTCGAGTAAACAAATTTTCCTAATCTTTCTGTTCAAGCGCCATCTAC”, the binding signal is 1.43 RPM ratio (pull-down/input).
With “GATGATTGTTCTCCCAGCTGATGAATTGGTCATATCGAGTAAACAAATTTTCCTAATCTTTCTGTTCAAGCGCCATCTAC”, the binding signal was 0.999 RPM ratio (pull-down/input).
As to “GATGATTGTTCTCCCAGCTGATGAATTAACCTCTTCGAGTAAACAAATTTTCCTAATCTTTCTGTTCAAGCGCCATCTAC”, the binding signal was 0.882 RPM ratio (pull-down/input).
With “GATGATTGTTCTCCCAGCTGATGAATTTCCTTGATCGAGTAAACAAATTTTCCTAATCTTTCTGTTCAAGCGCCATCTAC”, the binding signal is 0.863 RPM ratio (pull-down/input).
Consider “GATGATTGTTCTCCCAGCTGATGAATTCATGTACTCGAGTAAACAAATTTTCCTAATCTTTCTGTTCAAGCGCCATCTAC”, for which the binding signal was 1.03 RPM ratio (pull-down/input).
Take “GATGATTGTTCTCCCAGCTGATGAATTCGAAAATTCGAGTAAACAAATTTTCCTAATCTTTCTGTTCAAGCGCCATCTAC”: the binding signal was 0.903 RPM ratio (pull-down/input).
In the case of “GATGATTGTTCTCCCAGCTGATGAATTGTACACCTCGAGTAAACAAATTTTCCTAATCTTTCTGTTCAAGCGCCATCTAC”, the binding signal is 1.05 RPM ratio (pull-down/input).
As for “GATGATTGTTCTCCCAGCTGATGAATTAATTAGATCGAGTAAACAAATTTTCCTAATCTTTCTGTTCAAGCGCCATCTAC”, the binding signal was 1.02 RPM ratio (pull-down/input).
As for “GATGATTGTTCTCCCAGCTGATGAATTTTCCGGCTCGAGTAAACAAATTTTCCTAATCTTTCTGTTCAAGCGCCATCTAC”, the binding signal was 0.758 RPM ratio (pull-down/input).
To “GATGATTGTTCTCCCAGCTGATGAATTCAGTGTATCGAGTAAACAAATTTTCCTAATCTTTCTGTTCAAGCGCCATCTAC” belongs 1.17 RPM ratio (pull-down/input); to “GATGATTGTTCTCCCAGCTGATGAATTTAGGCGCTCGAGTAAACAAATTTTCCTAATCTTTCTGTTCAAGCGCCATCTAC”, 0.917 RPM ratio (pull-down/input); to “GATGATTGTTCTCCCAGCTGATGAATTGGGCGAGTCGAGTAAACAAATTTTCCTAATCTTTCTGTTCAAGCGCCATCTAC”, 0.889 RPM ratio (pull-down/input).
Take “GATGATTGTTCTCCCAGCTGATGAATTGGTGTTTTCGAGTAAACAAATTTTCCTAATCTTTCTGTTCAAGCGCCATCTAC”: the binding signal was 2.65 RPM ratio (pull-down/input).
